# Measured values from PubChem BioAssay AID463173 (ICCB-Longwood Screening Facility, Harvard Medical School, 2010).
# Among all 52,000 compounds or so, about 4,300 (8.3%) were called active. No stated cut-off is given here; in the data, active means survival mostly below about 52% (no sharp cut-off); inactive means mostly above about 56%. The list shows a part of the results.
# Test system: DeltatarO mutant
# Experiment: growth inhibition of S. aureus wild type versus tarO mutant, primary screen, teichoic acid synthesis inhibitors, RN4220, OD600 (AID 463173)
# Conditions: OD600, 18 h, stronger effect = lower value, screened at 18.75 µg/mL (by protocol)
row,Compound,survival
1,NC(=O)c1nc(Nc2ccccc2)sc1NC(=O)c1ccccc1Br,inactive: 95%
2,CCOC(=O)c1cccc(NS(=O)(=O)c2ccc(-c3cnc(C4CC4)o3)cc2)c1,inactive: 99%
3,O=C(C1CCN(S(=O)(=O)Cc2ccccc2)CC1)N1CCN(c2ccccc2)CC1,inactive: 68%
4,Cc1ccc(OCC(=O)Nc2ccc3nc(SCC(=O)N4CCOCC4)sc3c2)cc1,inactive: 86%
5,COc1ccccc1NC(=O)CSc1ncc2c(n1)-c1cc(Cl)ccc1N(Cc1ccccc1)S2(=O)=O,inactive: 83%
6,CCCCc1c(C)nc2c(-c3ccc(OC)cc3)c(C)[nH]n2c1=O,active: 7%
7,Cn1c(CN2CCCCC2)nc2cc(NC(=O)c3ccccc3Cl)ccc21,inactive: 76%
8,CCCCNC(=O)CCCn1c(=O)c2ccccc2n(Cc2cccc(Cl)c2)c1=O,inactive: 100%
9,N#Cc1c(N)n(-c2cccc(Cl)c2)c2nc3ccccc3nc12,inactive: 90%
10,COc1cccc(Nc2cc(C)nc3nc(-c4ccc(Cl)cc4)nn23)c1,inactive: 71%
11,COc1ccc(NCc2cc3cc4c(cc3n(CC(=O)Nc3cc(C)cc(C)c3)c2=O)OCO4)cc1,inactive: 67%
12,Cc1nn(C)c2c1c(-c1ccccc1)cc(=O)n2CC(=O)Nc1ccccc1C(F)(F)F,inactive: 94%
13,C=C(C)Cn1cnc2ccccc21,inactive: 76%
14,CCOC(=O)COc1ccccc1C1C(C(=O)OC)=C(C)NC2=C1C(=O)c1ccccc12 (centres undefined),active: 39%
15,O=C(NCCCc1nc2ccccc2n1Cc1c(F)cccc1Cl)C1CCCCC1,inactive: 93%
16,Cc1nc2c(c(C)c1CCC(=O)NCc1ccccc1)c(=O)n(C)c(=O)n2C,inactive: 104%
17,COCCCNC(=O)CSc1nc2c(sc3ccccc32)c(=O)n1CCc1ccccc1,inactive: 72%
18,COc1cc(NC(=O)CSc2nc3ccccc3nc2Cc2ccc(Cl)cc2)cc(OC)c1,inactive: 79%
19,CCOC(=O)c1cccc(NC(=O)c2cc3c(-c4cccc(OC)c4)nn(C)c3s2)c1,inactive: 58%
20,Cc1ccc(S(=O)(=O)c2nc(S(C)(=O)=O)sc2N(C)Cc2ccccc2)cc1,inactive: 84%
21,Cc1cccc(NC(=O)C2CCC(CNS(=O)(=O)c3csc(C(N)=O)c3)CC2)c1C (centres undefined),inactive: 75%
22,COc1ccc(N(Cc2cccs2)C(=O)c2ccc(OCC(C)C)cc2)cc1,inactive: 105%
23,CCCc1nn2c(=O)cc(COC(=O)c3ccccc3NC(=O)c3cccs3)nc2s1,inactive: 55%

row,Compound,survival
1,COc1cc(C2c3c(oc4ccccc4c3=O)C(=O)N2c2ccccn2)cc(OC)c1OC (centres undefined),inactive: 146%
2,O=C(O)C(c1ccccc1)N1CCOCC1 (centres undefined),inactive: 92%
3,Cc1cccc(NC(=O)C2CCC(CNS(=O)(=O)c3ccc(Br)s3)CC2)c1 (centres undefined),active: 52%
4,Cc1ccc(C)c(C(=O)c2c(N)c(-c3nc(-c4ccc5c(c4)OCO5)cs3)c3ccccn23)c1,inactive: 80%
5,COc1cccc(C2CC(=O)N(c3ccc(F)cc3)C3=C2C(=O)OC3)c1OC (centres undefined),inactive: 75%
6,COc1cc(NC(=O)Nc2cccc(-c3noc(C)n3)c2)cc(OC)c1OC,inactive: 128%
7,Cc1cn2c(=O)cc(COc3ccc(Cl)cc3)nc2s1,inactive: 53%
8,Cc1ccc(Cl)cc1NC(=O)Cc1ccc(-n2c(C)nc3cccnc32)cc1,inactive: 116%
9,CCOc1ccc(-n2c(=O)c3c(C)c(C)sc3n(CC(=O)N(CC)Cc3ccccc3)c2=O)cc1,active: 45%
10,CCOc1ccc(CNc2nc3nc(C)c(Cc4ccccc4)c(=O)n3[nH]2)cc1,inactive: 81%
11,CCc1ccc(CNC(=O)C2Cc3cc(S(=O)(=O)N4CCCCCC4)ccc3N2C(C)=O)cc1 (centres undefined),inactive: 84%
12,COc1ccc2c(c1)CC(C(=O)Nc1cc(Cl)ccc1C)CO2 (centres undefined),inactive: 80%
13,Cc1ccc(Cl)cc1NC(=O)c1oc2ccc(S(=O)(=O)N(C)C3CCCCC3)cc2c1C,inactive: 78%
14,Cc1ccc(S(=O)(=O)c2cn(Cc3cccc(C)c3)c3cc4c(cc3c2=O)OCO4)cc1,inactive: 101%
15,Cc1cccc(NC(=S)N2CCC(NC(=O)c3ccco3)CC2)c1,inactive: 92%
16,COc1ccc(CNCCNC(=O)c2cccs2)c(OC)c1OC,inactive: 97%
17,Cc1nn(C(C)C(=O)N2CCN(c3ccc(Cl)cc3)CC2)c(=O)c2cc3occc3n12 (centres undefined),inactive: 60%
18,CCc1nonc1NC(=O)c1oc2ccc(Br)cc2c1C,inactive: 77%
19,CCc1ccc(-n2c(=O)c3c4c(sc3n(CC(=O)N3CCC(C)CC3)c2=O)CCC4)cc1,inactive: 83%
20,COC(=O)CN(C#N)c1nc(SC)nc(N(C)C)n1,active: 52%
21,Cc1ccc(Cl)cc1NC(=O)c1oc2ccc(S(=O)(=O)N3CCCCC3)cc2c1C,inactive: 74%
22,Cc1oc2ncnc(N3CCCCC3)c2c1C(=O)N1CCN(c2cccc(Cl)c2)CC1,inactive: 94%
23,CCCN1C(=O)C2(c3ccccc31)c1c(oc3ccc(F)cc3c1=O)C(=O)N2CCCOC(C)C (centres undefined),inactive: 93%

row,Compound,survival
1,c1coc(-c2nc3n(n2)C2(CCCCC2)[C@@H]2CCCC[C@@H]2N3)c1,inactive: 89%
2,CC(C)(C)n1nnnc1C(c1cccs1)N1CCCc2ccccc21 (centres undefined),inactive: 83%
3,CN(C(=O)CSc1nnc(-c2ccccc2F)o1)C1CCCCC1,inactive: 58%
4,Oc1ccc(CNc2ccccc2Cl)c2cccnc12,inactive: 115%
5,Cc1ccc2c(c1)c(=O)c(C(=O)c1ccc3c(c1)OCO3)cn2Cc1ccc(Cl)cc1,active: 46%
6,CCOc1ccc(CN(C(=O)c2cc(=O)c3cc(C)cc(C)c3o2)C2CCS(=O)(=O)C2)cc1 (centres undefined),inactive: 56%
7,COc1cc(NC(=O)CCc2c(C)nc3cc(-c4ccccc4)nn3c2C)cc(OC)c1OC,inactive: 65%
8,O=C1CSC(=S)N1Nc1ccccc1,inactive: 80%
9,CCC(CC)C(=O)Nc1nnc(SCc2cc(=O)n3cccc(C)c3n2)s1,inactive: 80%
10,CSc1ccc(/C=C/c2nc3ccccc3n2S(=O)(=O)c2cccc(Cl)c2)cc1,inactive: 72%
11,O=C(NCCc1ccc(Cl)cc1)C(=O)NCC(c1ccco1)S(=O)(=O)c1ccc(Cl)cc1 (centres undefined),inactive: 94%
12,CCOc1ccc(CN2C(=O)c3ccccc3Sc3ccc(C(=O)O)cc32)cc1,inactive: 77%
13,Cc1ccc(CCNC(=O)c2ccc3c(c2)N(Cc2cccc(Cl)c2)C(=O)c2ccccc2S3(=O)=O)cc1,inactive: 105%
14,O=C(Nc1cccc(C(F)(F)F)c1)C1CCCN1S(=O)(=O)c1cccc2nsnc12 (centres undefined),inactive: 78%
15,Cc1cc(C)cc(OC(C)C(=O)Nc2c(C(=O)c3ccccc3)oc3ccccc23)c1 (centres undefined),active: 17%
16,CSc1ccc(C2c3c(oc4cc(C)cc(C)c4c3=O)C(=O)N2Cc2ccco2)cc1 (centres undefined),inactive: 57%
17,CCCN(CCC)S(=O)(=O)c1ccc(C(=O)Nc2sc3c(c2C(=O)OC)CCN(CC)C3)cc1,inactive: 82%
18,CCN(C(=O)CSc1nc(-c2ccc(C(C)C)cc2)no1)c1cccc(C)c1,inactive: 84%
19,Cc1ccc(-n2c(-c3ccco3)nc3c(cnn3-c3ccccc3Cl)c2=O)cc1,inactive: 128%
20,Cc1cccc(C(=O)Nc2nnc(S(=O)(=O)N(C)c3ccccc3C)s2)c1,active: 32%
21,COc1ccc(CNC(=O)CCCn2nc(C)c3c(C)n(-c4ccccc4)nc3c2=O)cc1,inactive: 89%
22,COc1ccc(OC)c(NS(=O)(=O)c2ccc(-c3cc(C)no3)s2)c1,inactive: 88%
23,COc1ccc(CCNS(=O)(=O)c2cc(-c3cc(C)no3)ccc2C)cc1OC,inactive: 88%

row,Compound,survival
1,Cc1ccc(Cl)cc1Nc1nn2c(=O)c3ccc(C(=O)N4CCCC(C)C4)cc3nc2s1 (centres undefined),inactive: 73%
2,CC(C)c1cnc2c(c1SCC(=O)Nc1cccc(F)c1)c(=O)n(C)c(=O)n2C,inactive: 81%
3,O=C(c1cc2ccccc2oc1=O)N(Cc1ccc(F)cc1)Cc1ccco1,active: 41%
4,CCc1ccc(CN2CCc3nc(N4CCN(CC)CC4)ncc3C2)cc1,inactive: 70%
5,CN(C)c1ccc(CNC(=O)CCn2cccn2)cc1,inactive: 93%
6,CCOC(=O)c1cc(OC(=O)c2ccccc2C)n(-c2ccccc2)n1,inactive: 87%
7,COCCCNC(=O)C1CCN(c2nc3ccc(C)cc3[nH]2)CC1,inactive: 95%
8,COc1cccc(N2CCN(C(=O)CCS(=O)(=O)c3ccc4c(c3)oc(=O)n4C)CC2)c1,inactive: 88%
9,Cc1ccc(S(=O)(=O)N2CCC(C(=O)Nc3ccc(C)c(Cl)c3)CC2)cc1,inactive: 124%
10,CCc1ccc(-c2csc(Nc3ncccn3)n2)cc1,inactive: 87%
11,CCOC(=O)c1c(C)[nH]c(C)c1S(=O)(=O)N1CCN(c2cccc(C(F)(F)F)c2)CC1,inactive: 128%
12,CCN(CC)C(=O)Cn1c(=O)n(-c2ccc(Cl)cc2)c(=O)c2c3c(sc21)CCC3,inactive: 82%
13,COc1ccc(CCNC(=O)C(=O)NCC(c2cccs2)S(=O)(=O)c2ccc(C)cc2)cc1 (centres undefined),inactive: 69%
14,O=C1c2[nH]nc(-c3ccccc3O)c2C(c2cccc(OCc3ccccc3)c2)N1CCO (centres undefined),inactive: 67%
15,COc1ccc(C(=O)COC(=O)C(Cc2c[nH]c3ccccc23)NC(=O)c2ccc(C(C)(C)C)cc2)cc1 (centres undefined),inactive: 92%
16,Cc1cn2c(=O)cc(COC(=O)c3cccc(NC(=O)c4ccccc4C)c3)nc2s1,inactive: 81%
17,COc1ccc(-n2nc(C)c3c(C(F)(F)F)cc(-c4cccnc4)nc32)cc1,inactive: 56%
18,CCCSc1nc2c([nH]c3ccccc32)c(=O)n1C,inactive: 85%
19,CN1CCN(C(=O)/C=C/c2ccccc2)CC1,inactive: 77%
20,CCc1ccc(NS(=O)(=O)c2ccc3[nH]cc(C(=O)NCCCOC(C)C)c(=O)c3c2)cc1,inactive: 83%
